In the supplement of paper PMC7125110:
± gives the standard error. Variants at the background level are over-represented here.

B1: glmS ribozyme (parent)
chain: AUAAAAGCGCCAGAACUACAGAAAUGUAGUUGACGAGGAGGAGGUUUAUCGAAUUUUCGGCGGAUGCCUCCAAA

What was measured:
Details in all cases: with glucosamine-6-phosphate
[1] = variants of: B1; test: self-cleavage kobs at 640 uM GlcN6P; higher = faster cleavage; RNA array
Outline: (§1)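 Tiles of sequenced MiSeq chips were imaged over ~14 h at 37 °C. On them, barcoded ribozyme variants had been transcribed in situ by E. coli RNA polymerase and were tracked via a hybridised Cy3 probe while glucosamine-6-phosphate (40 μM to 10 mM) in HEPES/KCl/Mg(OAc)2 buffer flowed in. Per-tile medians, normalised to baseline and to non-cleaving reference variants, were fit to one- or two-exponential decays for kobs, and weighted Michaelis–Menten fits gave kcat and KM.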

[2] = variants of: B1; test: self-cleavage kobs at 160 uM GlcN6P; higher = faster cleavage; RNA array
Outline: as §1

[3] = variants of: B1; test: self-cleavage kobs at 2500 uM GlcN6P; higher = faster cleavage; RNA array
Outline: as §1

[4] = variants of: B1; test: self-cleavage kobs at 10000 uM GlcN6P; higher = faster cleavage; RNA array
Outline: as §1

Variant	self-cleavage kobs at 640 uM GlcN6P [1]	self-cleavage kobs at 160 uM GlcN6P [2]	self-cleavage kobs at 2500 uM GlcN6P [3]	self-cleavage kobs at 10000 uM GlcN6P [4]
A14C G37U A39U	< 1e-05 s⁻¹			
A14C G38A A42G	< 1e-05 s⁻¹	< 1e-05 s⁻¹	< 1e-05 s⁻¹	
A14C G38C U46G U47G G51U	< 1e-05 s⁻¹			
A14C G38U G44U C68G	< 1e-05 s⁻¹		< 1e-05 s⁻¹	
A14C G40C	0.000114 ± 1.8e-05 s⁻¹	2.58e-05 ± 1.1e-05 s⁻¹	0.000285 ± 3.3e-05 s⁻¹	0.000533 ± 7.6e-05 s⁻¹
A14C G41A C70U	0.00173 ± 0.00026 s⁻¹		0.00489 ± 0.0012 s⁻¹	0.0111 ± 0.0021 s⁻¹
A14C G41A G62U C70G	< 1e-05 s⁻¹		< 1e-05 s⁻¹	
A14C G41C C50G G51U A64G	< 1e-05 s⁻¹		< 1e-05 s⁻¹	
A14C G41C U54G	< 1e-05 s⁻¹			
A14C G41U G66C	< 1e-05 s⁻¹		< 1e-05 s⁻¹	
A14C G43C U46A	< 1e-05 s⁻¹	< 1e-05 s⁻¹	< 1e-05 s⁻¹	
A14C G62U	< 1e-05 s⁻¹	< 1e-05 s⁻¹	< 1e-05 s⁻¹	< 1e-05 s⁻¹
A14C G66A C71U	0.000399 ± 9.8e-05 s⁻¹	0.000171 ± 5.4e-05 s⁻¹	0.00114 ± 0.00023 s⁻¹	
A14C U56G U57A C71A	8.95e-05 ± 2.3e-05 s⁻¹		5.04e-05 ± 2e-05 s⁻¹	
A14C U65A C70U	0.000125 ± 3.2e-05 s⁻¹			
A14G A15G U55G A64G	0.00775 ± 0.002 s⁻¹	0.00524 ± 0.0017 s⁻¹		
A14G A15U A48U U69C	6.32e-05 ± 2.6e-05 s⁻¹			7.49e-05 ± 2e-05 s⁻¹
A14G A33C A36G G66A	< 1e-05 s⁻¹	< 1e-05 s⁻¹		
A14G A33U G44U U47C G63U	< 1e-05 s⁻¹		< 1e-05 s⁻¹	< 1e-05 s⁻¹

Variant	self-cleavage kobs at 640 uM GlcN6P [1]	self-cleavage kobs at 160 uM GlcN6P [2]	self-cleavage kobs at 2500 uM GlcN6P [3]	self-cleavage kobs at 10000 uM GlcN6P [4]
A14G C34G G38U G60A G66A	< 1e-05 s⁻¹			
A14G C58G U69A	8.05e-05 ± 3.6e-05 s⁻¹	3.98e-05 ± 2e-05 s⁻¹	3.74e-05 ± 1.9e-05 s⁻¹	
A14G G29A G37U	< 1e-05 s⁻¹			
A14G G29A G51U A52C	< 1e-05 s⁻¹			
A14G G29C A42C C71G	< 1e-05 s⁻¹	< 1e-05 s⁻¹	< 1e-05 s⁻¹	
A14G G29U A52C C68A	0.000113 ± 4.7e-05 s⁻¹	0.000918 ± 0.00046 s⁻¹		
A14G G29U G35C	< 1e-05 s⁻¹	< 1e-05 s⁻¹	< 1e-05 s⁻¹	< 1e-05 s⁻¹
A14G G32A A33C C34G G43U U47C	< 1e-05 s⁻¹	< 1e-05 s⁻¹	< 1e-05 s⁻¹	
A14G G32C C70G	< 1e-05 s⁻¹			
A14G G32C U45A C70G	< 1e-05 s⁻¹			
A14G G35U G37C U47C	< 1e-05 s⁻¹			
A14G G38U U56C	< 1e-05 s⁻¹			< 1e-05 s⁻¹
A14G G41U G51U	< 1e-05 s⁻¹	< 1e-05 s⁻¹	< 1e-05 s⁻¹	
A14G G44C U56G A64G U65G	< 1e-05 s⁻¹	< 1e-05 s⁻¹		
A14G U47A G66C	0.000364 ± 0.00011 s⁻¹		0.00101 ± 0.00023 s⁻¹	0.00125 ± 0.00022 s⁻¹
A14G U56G U57C	5.18e-05 ± 1.5e-05 s⁻¹	3.78e-05 ± 1.6e-05 s⁻¹	0.000269 ± 8.2e-05 s⁻¹	
A14U A15C A42C A52U	< 1e-05 s⁻¹			
A14U A15U C68U	8.97e-05 ± 2.4e-05 s⁻¹			
A14U A36C U47C	< 1e-05 s⁻¹			

Variant	self-cleavage kobs at 640 uM GlcN6P [1]	self-cleavage kobs at 160 uM GlcN6P [2]	self-cleavage kobs at 2500 uM GlcN6P [3]	self-cleavage kobs at 10000 uM GlcN6P [4]
A14U A36U C67U	< 1e-05 s⁻¹			
A14U A36U U47C	< 1e-05 s⁻¹		< 1e-05 s⁻¹	
A14U A64U	< 1e-05 s⁻¹	< 1e-05 s⁻¹		
A14U C16G G38U	< 1e-05 s⁻¹		< 1e-05 s⁻¹	
A14U C50G G62A	0.000193 ± 8.2e-05 s⁻¹			
A14U G29U U56G	0.000178 ± 4.1e-05 s⁻¹		0.000206 ± 7.4e-05 s⁻¹	
A14U G32C G62U	< 1e-05 s⁻¹			
A14U G35U A39U C50U C70G	< 1e-05 s⁻¹	< 1e-05 s⁻¹		
A14U G35U G44U	< 1e-05 s⁻¹			
A14U G37U A39C G41C G51A	< 1e-05 s⁻¹			
A14U G41U	0.000109 ± 1.4e-05 s⁻¹	4.48e-05 ± 7.9e-06 s⁻¹	0.000292 ± 5.4e-05 s⁻¹	0.000271 ± 3.1e-05 s⁻¹
A14U G43A	< 1e-05 s⁻¹			
A14U G59A G60U	< 1e-05 s⁻¹			
A14U G60A	< 1e-05 s⁻¹	< 1e-05 s⁻¹		
A14U U31C G37C	< 1e-05 s⁻¹			
A14U U47C C58G C68G	5.55e-05 ± 1.6e-05 s⁻¹			
A14U U49G G51A	< 1e-05 s⁻¹			
A14U U57G C61G	< 1e-05 s⁻¹			
A14U U65A	0.000203 ± 2.7e-05 s⁻¹	4.54e-05 ± 1.3e-05 s⁻¹	0.000449 ± 0.00012 s⁻¹	0.00105 ± 0.00012 s⁻¹
